{"source": "PubChem BioAssay AID651813", "about": "(National Center for Advancing Translational Sciences (NCATS), 2012)", "note": "About 1,100 (52%) of roughly 2,100 compounds were called active. The set was probably picked from earlier hits. The inconclusive results got no clear call from the source; some entries with a clear call stand among them for comparison. Calls follow the shape of the dose curve; as a rule, active = well fitted inhibition curve with a large enough effect; inconclusive = small, poorly fitted or top-dose-only effect; inactive = no such curve, though single readings can be large or run the other way. No potency is given beside an inconclusive call; the fits are too rough. Potency is read from the fitted curve at half-maximal effect; tags tell the direction and shape of the fitted curve.", "data": [{"target": "DNA dC->dU-editing enzyme APOBEC-3G (Homo sapiens) (UniProt Q9HC16)", "sequence (Q9HC16 whole entry, looked up)": "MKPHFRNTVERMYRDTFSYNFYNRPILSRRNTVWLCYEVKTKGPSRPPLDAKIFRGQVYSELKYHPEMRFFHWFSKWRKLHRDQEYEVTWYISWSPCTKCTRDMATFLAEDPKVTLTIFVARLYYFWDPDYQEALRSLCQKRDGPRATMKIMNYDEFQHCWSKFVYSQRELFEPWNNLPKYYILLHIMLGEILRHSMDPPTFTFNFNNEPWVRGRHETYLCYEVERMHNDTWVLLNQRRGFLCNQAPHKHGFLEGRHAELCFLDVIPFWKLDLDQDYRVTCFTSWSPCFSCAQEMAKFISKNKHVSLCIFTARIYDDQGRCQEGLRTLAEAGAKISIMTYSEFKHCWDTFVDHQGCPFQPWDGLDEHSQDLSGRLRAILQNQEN", "test": "qHTS for inhibitors of Vif-A3G interactions: Cherry picks counterscreen;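 also: hits raise yellow fluorescence by blocking Vif-driven A3G-eYFP degradation; nearly all actives have a fitted effect of over 70% in size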;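 as to max response: max response given as percent of control signal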", "conditions": "HeLa A3G-eYFP + Vif (tagged APOBEC3G with the HIV-1 protein that degrades it), eYFP fluorescence, 24 h", "method_in_brief": "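HeLa cells stably expressing A3G-eYFP and Vif were treated for 24 h at 37 deg C with compounds at several concentrations; yellow fluorescence (Ex 488 nm, Em 500-530 nm) read by Acumen Explorer, MG132 as positive control.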", "values": [{"molecule": "Cc1ccc(C)c(Nc2nn3c(=O)c4ccc(C(=O)NCc5cccs5)cc4nc3s2)c1", "Potency": "inconclusive [inhibitor, single point]"}, {"molecule": "Cn1cccc1/C=C1\\SC(=Nc2ccc(O)cc2)NC1=O", "Potency": "inconclusive [inhibitor, partial curve, poor fit]"}, {"molecule": "CCOc1ccc(C2CC(c3c(O)c4ccccc4oc3=O)=NN2c2ccccc2)cc1OC", "note": "(stereo not given)", "Potency": "active: 5.17 µM"}, {"molecule": "O=C(O)Cc1sc(NC2CCCCC2)nc1-c1ccc(Cl)cc1", "Potency": "inconclusive [inhibitor, single point]"}, {"molecule": "CCCCOc1ccc(-c2nnn(CC(=O)NCc3ccco3)n2)cc1", "Potency": "inconclusive [inhibitor, partial curve]"}, {"molecule": "COc1ccc(NC(=O)c2sc3nc(C(F)(F)F)cc(C)c3c2N)cc1OC", "Potency": "inconclusive [inhibitor, single point]"}, {"molecule": "CCOC(=O)C1=C(CSc2nc(-c3ccccc3)ccc2C#N)OC(N)=C(C#N)C1c1cccnc1", "note": "(stereo not given)", "Potency": "inconclusive [inhibitor, single point]"}, {"molecule": "CCn1c2ccccc2c2cc(NC(=O)c3ccc(=O)oc3)ccc21", "Potency": "inconclusive [inhibitor, single point]"}, {"molecule": "CC1C/C(=C/c2cccs2)C(=O)/C(=C/c2cccs2)C1", "note": "(stereo not given)", "max response": "inactive: 14.5%"}, {"molecule": "COc1cc(C(=O)NCCOc2cc(C)cc(C)c2)cc(OC)c1OC", "Potency": "active: 3.14 µM"}, {"molecule": "O=C(NCc1ccccc1)c1cccc2c1C(=O)c1ccc(/C=C/c3ccccc3)cc1S2(=O)=O", "Potency": "inconclusive [inhibitor, single point]"}, {"molecule": "O=C1c2cccc3c([N+](=O)[O-])ccc(c23)C(=O)N1c1ccccn1", "max response": "inactive: 54.4%"}, {"molecule": "CCOC(=O)CCSc1nc(C)cc(C(F)(F)F)c1C#N", "Potency": "active: 12.5 µM"}, {"molecule": "Cc1ccccc1NC(=O)CSC1=C(C#N)C(c2ccsc2)CC(=O)N1", "note": "(stereo not given)", "Potency": "inconclusive [inhibitor, partial curve]"}, {"molecule": "CNC(=S)N/N=C/c1ccc(N2CCOCC2)s1", "max response": "inactive: 10.6%"}, {"molecule": "COc1ccc2c(C)cc(SCC(=O)N3CCOCC3)nc2c1", "Potency": "inconclusive [inhibitor, single point]"}, {"molecule": "C#CCSc1nc(-c2cccs2)ccc1C#N", "Potency": "inconclusive [inhibitor, partial curve, poor fit]"}, {"molecule": "Oc1ccc(C=NNC(=S)Nc2ccc(F)cc2)c(O)c1", "max response": "inactive: -25.9%"}, {"molecule": "O=c1c2ccccc2c(C=Nc2cccc(O)c2)c(O)n1-c1ccc2c(c1)OCO2", "Potency": "inconclusive [inhibitor, single point]"}, {"molecule": "COc1ccccc1N1C(=O)S/C(=C\\c2ccc(C)s2)C1=O", "Potency": "inconclusive [inhibitor, single point]"}, {"molecule": "Cn1nnnc1SCCNCc1cc(Br)ccc1OCc1ccccc1Cl", "max response": "inactive: -13.4%"}, {"molecule": "CN1C(=O)/C(=C/c2ccccc2OCc2ccc(F)cc2)N(C)C1=S", "Potency": "inconclusive [inhibitor, single point]"}, {"molecule": "CCOc1ccc(Br)cc1C(=O)Nc1ccc(C(=O)NCC(C)C)cc1", "Potency": "inconclusive [inhibitor, single point]"}, {"molecule": "O=C(Nc1ccc(Cl)cn1)c1cccc(S(=O)(=O)N2CCCCCC2)c1", "max response": "inactive: 1.56%"}, {"molecule": "Cc1ccc(NS(=O)(=O)c2cc([N+](=O)[O-])ccc2N/N=C/c2sc(N3CCOCC3)nc2-c2ccccc2)c(C)c1", "Potency": "inconclusive [inhibitor, full curve]"}, {"molecule": "CC(=O)c1cccc(-c2ccnc3c2CC(C(=O)Nc2ccc4c(c2)OCO4)O3)c1", "note": "(stereo not given)", "Potency": "inconclusive [inhibitor, partial curve, poor fit]"}, {"molecule": "COc1ccccc1-c1cc(C(=O)NN)[nH]n1", "max response": "inactive: 14.5%"}, {"molecule": "COc1ccccc1CNC(=O)c1ccc(Nc2nc3ccccc3n3nnnc23)cc1", "Potency": "inconclusive [inhibitor, partial curve]"}, {"molecule": "CCCCOc1nc2ccccc2nc1NS(=O)(=O)c1ccc(F)cc1", "max response": "inactive: -6.51%"}, {"molecule": "Cc1ccc2nc3c(cc(S(=O)(=O)c4ccccc4)c(=N)n3Cc3ccco3)c(=O)n2c1", "max response": "inactive: 17.8%"}, {"molecule": "Cn1ccnc1Sc1nc2ccccc2nc1NS(=O)(=O)c1ccccc1", "max response": "inactive: -7.62%"}, {"molecule": "O=C(NCc1cc(C(F)(F)F)ccc1Cl)c1cccc2c1C(=O)c1ccc(N3CCOCC3)cc1S2(=O)=O", "Potency": "inconclusive [inhibitor, single point]"}, {"molecule": "CC(C)n1cc(NC(=O)c2cc(-c3ccccc3)on2)cn1", "Potency": "active: 5.59 µM"}, {"molecule": "O=C(OCCC12CC3CC(CC(C3)C1)C2)c1ccc(NCc2cc(O)ccc2O)cc1", "max response": "inactive: 25.7%"}, {"molecule": "C/C(CCC(C)C)=N\\NC(=S)NCc1ccccc1", "max response": "inactive: -18.4%"}, {"molecule": "Oc1ccc(-c2nc(-c3ccc(O)c(O)c3)cs2)cc1", "Potency": "active: 0.994 µM"}, {"molecule": "CN(C)S(=O)(=O)c1ccc(N2CCCC2)c(C(=O)N2CCN(S(=O)(=O)c3ccc(F)c(F)c3)CC2)c1", "max response": "inactive: 9.68%"}, {"molecule": "CCN(CC)c1ccc(NC(=O)c2ccc(=O)[nH]c2)cc1S(=O)(=O)Nc1ccccc1OC", "Potency": "inconclusive [inhibitor, single point]"}, {"molecule": "CC(NC1=CC(=O)c2cccnc2C1=O)C(O)c1ccccc1", "note": "(stereo not given)", "Potency": "inconclusive [inhibitor, single point]"}, {"molecule": "COCCN1C(=O)/C(=C/c2ccc(N3CCCC3)cc2)SC1=S", "Potency": "active: 7.31 µM"}, {"molecule": "COc1ccc(OC)c(NCc2cccn2-c2nnc(N3CCC(C)CC3)s2)c1", "Potency": "inconclusive [inhibitor, full curve]"}, {"molecule": "COc1ccc(-c2c(C#N)c(N)nc(Sc3ccc(Cl)cc3)c2C#N)cc1", "max response": "inactive: -11.5%"}, {"molecule": "Cc1ccc2nc(NS(=O)(=O)c3ccc(Cl)cc3)c(Nc3ccc(C(=O)O)cc3)nc2c1", "max response": "inactive: 2.4%"}, {"molecule": "COc1cc(/C=C/C(=O)c2ccc(O)cc2)ccc1OCC#N", "Potency": "inconclusive [inhibitor, single point]"}, {"molecule": "Cc1ccc(S(=O)c2ccc([N+](=O)[O-])c3nonc23)cc1", "note": "(stereo not given)", "max response": "inactive: 28.3%"}, {"molecule": "COC1=C(Br)C(=O)c2ncccc2C1=O", "Potency": "inconclusive [inhibitor, single point]"}, {"molecule": "Cc1ccc2c(c1)Sc1c(ccc3ccccc13)N2", "Potency": "inconclusive [inhibitor, single point]"}, {"molecule": "CCC/C=N/NC(=O)c1[nH]c2c([N+](=O)[O-])cccc2c1C", "Potency": "inconclusive [inhibitor, single point]"}, {"molecule": "CCc1ccc2c(c1)NC(=O)C2(C)Cc1ccccc1Cl", "note": "(stereo not given)", "Potency": "inconclusive [inhibitor, single point]"}, {"molecule": "CCN(CC)c1ccc2cc(C(N)=O)c(=N)oc2c1", "max response": "inactive: 60.6%"}, {"molecule": "COC(=O)[C@@H]1Cc2c([nH]c3ccccc23)C(C)(C)N1C(=O)CCl", "Potency": "inconclusive [inhibitor, single point]"}, {"molecule": "CC(=O)c1cc2c(cc1NS(=O)(=O)c1ccc(C)cc1)OCCO2", "Potency": "active: 12.5 µM"}, {"molecule": "COc1ccc(C(=O)c2cc([N+](=O)[O-])ccc2N2CCCC2)cc1", "Potency": "active: 7.04 µM"}, {"molecule": "O=C(CSc1n[nH]c(-c2ccccn2)n1)Nc1ccc(Cl)cc1", "max response": "inactive: 17.5%"}, {"molecule": "Cc1cc2cc(C#N)c(SCC(=O)Nc3nonc3C)nc2cc1C", "Potency": "inconclusive [inhibitor, single point]"}, {"molecule": "O=C(NCc1ccccc1)C1Cc2c(-c3ccc(Cl)cc3)ccnc2O1", "note": "(stereo not given)", "Potency": "inconclusive [inhibitor, full curve]"}, {"molecule": "Cc1ccc(NC(=S)N=Nc2c(O)n(C)c3ccc(S(=O)(=O)N4CCOCC4)cc23)cc1", "max response": "inactive: 0.754%"}, {"molecule": "Fc1ccc(COc2ccc3ccccc3c2CNc2nn[nH]n2)cc1", "Potency": "inconclusive [inhibitor, single point]"}, {"molecule": "Cc1ccc(NC(=O)C(=Cc2ccc(C(=O)O)cc2)C(=O)Nc2ccc(C)cc2C)c(C)c1", "Potency": "active: 7.04 µM"}, {"molecule": "CN1/C(=C\\C=C(C#N)C#N)C(C)(C)c2ccccc21", "Potency": "inconclusive [inhibitor, single point]"}, {"molecule": "CCN(CC)c1ccc2cc(-c3nc(-c4cccs4)no3)c(=O)oc2c1", "Potency": "inconclusive [inhibitor, full curve, poor fit]"}, {"molecule": "COc1ccccc1-c1noc(-c2ccc(NCc3ccco3)c([N+](=O)[O-])c2)n1", "Potency": "inconclusive [inhibitor, single point]"}, {"molecule": "Cn1cccc1/C=C1\\SC(=O)N(c2ccc(O)cc2)C1=O", "Potency": "inconclusive [inhibitor, single point]"}, {"molecule": "Cc1cc(N=Cc2c(O)n(-c3ccc4c(c3)OCO4)c(=O)c3ccccc23)ccn1", "Potency": "inconclusive [inhibitor, single point]"}, {"molecule": "Cc1sc2nc(CSc3nnnn3-c3ccc(Cl)cc3)[nH]c(=O)c2c1C", "Potency": "inconclusive [inhibitor, single point]"}, {"molecule": "COc1cccc(NC(=O)Nc2nc(-c3ccc(OC)c(OC)c3)cs2)c1", "Potency": "inconclusive [inhibitor, single point]"}, {"molecule": "Cc1nc2c3ccccc3n(Cc3ccccc3F)c2s1", "Potency": "inconclusive [inhibitor, single point]"}, {"molecule": "O=C(N/N=C/c1c(O)n(-c2ccc(Cl)cn2)c(=O)c2ccccc12)c1ccncc1", "max response": "inactive: -19.7%"}, {"molecule": "CCOc1ccc(/C=N/NC(=O)c2cc3c(OC)cc(OC)c(OC)c3[nH]2)cc1", "Potency": "inconclusive [inhibitor, partial curve]"}, {"molecule": "CCn1cc2nc(SCC(=O)Nc3ccc(C)cc3C)n(Cc3ccc(C)cc3)c(=O)c2n1", "Potency": "inconclusive [inhibitor, full curve]"}]}]}
